Measurements: patent US20240376128A1, “N-CYCLOPROPYLPYRIDO [4, 3-D] PYRIMIDIN-4-AMINE DERIVATIVES AND USES THEREOF” (Jacobio Pharmaceuticals Co., Ltd., priority 2021, published 2024)

How the values were obtained:
[1] = target: K-Ras G12D (Homo sapiens, UniProt P01116, G12D); experiment: GTP-K-Ras (GppNp-K-Ras) and cRAF interaction assay, HTRF; conditions: read-out: Biochemical assays, IC50, K-Ras G12D GppNp
Excerpt: GppNp is an analog of GTP.

[2] = Mouse pharmacokinetic study; type: in vivo; conditions: female, Balb/c mouse
Description: The purpose of this study was to evaluate the pharmacokinetic properties of compounds in Balb/c mouse (♀) following single dose administration. Six mice were needed for each compound and the six mice were divided into two groups (n=3/group), group A and group B. Mice in group A were treated with a single 3 mg/kg dose of compound (iv). Mice in group B were treated with a single 10 mg/kg dose of compound (po). For each mouse in group A, blood samples were collected at the time point of 0.083, 0.5, 1, 2, 4 and 8 h post-dose. For each mouse in group B, blood samples were collected at the time point of 0.5, 1, 2, 4, 6 and 8 h post-dose. Blood samples were placed on ice until centrifugation to obtain plasma samples. The plasma samples were stored at −80° C. until analysis. The concentration of compound in plasma samples was determined using a LC-MS/MS method.
For the prodrug, only the oral PK study was performed and the dosage was adjusted to be equal to 10 mg/kg of parent drug. The concentrations of both prodrug and parent drug in plasma were determined using a LC-MS/MS method.

[3] = test system: SW620 cell line (K-Ras G12V); experiment: Phospho-ERK1/2(THR202/TYR204) HTRF assay; type: cell-based; conditions: Homo sapiens, SW-620; SW620 cells (K-Ras G12V), 2 hours incubation; read-out: p-ERK, IC50(nM) SW620
[4] = test system: K-Ras mutant and K-Ras WT cell lines indicated in Table 20; experiment: 2D cell growth inhibition assay (CellTiter-Glo, 6 days); type: cell-based
Description: Each of cells in culture medium was plated in TC-treated 96-well plates at a density indicated in Table 20 and incubated in a cell incubator overnight.

[5] = test system: AGS cell line (K-Ras G12D); experiment: Phospho-ERK1/2(THR202/TYR204) HTRF assay; type: cell-based; conditions: Homo sapiens; AGS cells (K-Ras G12D), 2 hours incubation; read-out: p-ERK, IC50(nM) AGS
[6] = target: K-Ras WT (Homo sapiens, UniProt P01116); experiment: SOS1 catalyzed nucleotide exchange assay (GDP form K-Ras), TR-FRET; conditions: read-out: Biochemical assays, IC50, K-Ras WT GDP
Description: The parameters were F486: Excitation 340 nm, Emission 486 nm, Lag time 100 pas, Integration time 200 pas; F515: Excitation 340 nm, Emission 515 nm, Lag time 100 pas, Integration time 200 pas. TR-FRET ratios for each individual wells were calculated by equation: TR-FRET ratio=(Signal F515/Signal F486)*10000.

[7] = prodrug dosed po, equal to 10 mg/kg of parent drug, analyte = dosed prodrug in plasma, read-out: AUC0-8h, analyte: prodrug
[8] = prodrug dosed po, equal to 10 mg/kg of parent drug, analyte = dosed prodrug in plasma, read-out: Cmax, analyte: prodrug
[9] = Homo sapiens, SW-620, 144 h, SW620 (K-Ras G12V), absolute IC50, read-out: Cell Growth Inhibition, IC50, SW620
[10] = 144 h, AGS (K-Ras G12D), absolute IC50, read-out: Cell Growth Inhibition, IC50, AGS
[11] = Homo sapiens, ASPC1, 144 h, AsPC-1 (K-Ras G12D), absolute IC50, read-out: Cell Growth Inhibition, IC50, AsPC-1

SMILES	pIC50 [1]	AUC(0-t) [2, 7] [ng·h/mL]	Cmax [2, 8] [ng/mL]	IC50 [3] [nM]	pIC50 [4, 9]	IC50 [5] [nM]	pIC50 [4, 10]	pIC50 [4, 11]	pIC50 [6]	AUC(0-t) ([2]; single dose 10 mg/kg, po, plasma, read-out: AUC0-8h) [ng·h/mL]	Cmax ([2]; single dose 10 mg/kg, po, plasma, read-out: Cmax) [ng/mL]
[2H]C([2H])([2H])N(c1nc(OC[C@@]23CCCN2C[C@H](F)C3)nc2c(F)c(-c3cc(OC(=O)NC)cc4ccc(F)c(C#C)c34)ncc12)C1CC1 [Compound 8, 4-(4-(cyclopropyl(methyl-d3)amino)-8-fluoro-2-(((2R,7aS)-2-fluorotetrahydro-1H-pyrrolizin-7a(5H)-yl)methoxy)pyrido[4,3-d]pyrimidin-7-yl)-5-ethynyl-6-fluoronaphthalen-2-yl methylcarbamate]	6.10	18300	4960								
C#Cc1c(F)ccc2cc(O)cc(-c3ncc4c(NC5C6COCC65)nc(OC[C@@]56CCCN5C[C@H](F)C6)nc4c3F)c12 (stereo partly drawn) [Compound 53, 4-(4-((3-oxabicyclo[3.1.0]hexan-6-yl)amino)-8-fluoro-2-(((2R,7aS)-2-fluorotetrahydro-1H-pyrrolizin-7a(5H)-yl)methoxy)pyrido[4,3-d]pyrimidin-7-yl)-5-ethynyl-6-fluoronaphthalen-2-ol]				165	7.43						
C#Cc1c(F)ccc2cc(O)cc(-c3ncc4c(NC5(CF)CC5)nc(OC[C@@]56CCCN5C[C@H](F)C6)nc4c3F)c12 [Compound 25, 5-ethynyl-6-fluoro-4-(8-fluoro-4-((1-(fluoromethyl)cyclopropyl)amino)-2-(((2R,7aS)-2-fluorotetrahydro-1H-pyrrolizin-7a(5H)-yl)methoxy)pyrido[4,3-d]pyrimidin-7-yl)naphthalen-2-ol]	6.49			52.1	7.01	305	6.61	5.66			
C#Cc1c(F)ccc2cc(O)cc(-c3ncc4c(NC5C6CCCCC65)nc(OC[C@@]56CCCN5C[C@H](F)C6)nc4c3F)c12 (stereo partly drawn) [Compound 55, 4-(4-(bicyclo[4.1.0]heptan-7-ylamino)-8-fluoro-2-(((2R,7aS)-2-fluorotetrahydro-1H-pyrrolizin-7a(5H)-yl)methoxy)pyrido[4,3-d]pyrimidin-7-yl)-5-ethynyl-6-fluoronaphthalen-2-ol]	5.82								7.53		
O=C(O)C(F)(F)F.[2H]C([2H])([2H])N(c1nc(OC[C@@]23CCCN2C[C@H](F)C3)nc2c(F)c(-c3cc(O)cc4ccc(F)c(C#C)c34)ncc12)[C@H]1C[C@@H]1F [Compound 7, 5-ethynyl-6-fluoro-4-(8-fluoro-4-(((1S,2S)-2-fluorocyclopropyl)(methyl-d3)amino)-2-(((2R,7aS)-2-fluorotetrahydro-1H-pyrrolizin-7a(5H)-yl)methoxy)pyrido[4,3-d]pyrimidin-7-yl)naphthalen-2-ol 2,2,2-trifluoroacetic acid]	7.75			6.36	8.53	7.23	8.33	7.38		1380	433
C#Cc1c(F)ccc2cc(O)cc(-c3ncc4c(NC5(COC)CC5)nc(OC[C@@]56CCCN5C[C@H](F)C6)nc4c3F)c12 [Compound 58, 5-ethynyl-6-fluoro-4-(8-fluoro-2-(((2R,7aS)-2-fluorotetrahydro-1H-pyrrolizin-7a(5H)-yl)methoxy)-4-((1-(methoxymethyl)cyclopropyl)amino)pyrido[4,3-d]pyrimidin-7-yl)naphthalen-2-ol]	< 6.00			65.3	6.80						
C#Cc1c(F)ccc2cc(O)cc(-c3ncc4c(N(CC(F)F)C5CC5)nc(OC[C@@]56CCCN5C[C@H](F)C6)nc4c3F)c12 [Compound 17, 4-(4-(cyclopropyl(2,2-difluoroethyl)amino)-8-fluoro-2-(((2R,7aS)-2-fluorotetrahydro-1H-pyrrolizin-7a(5H)-yl)methoxy)pyrido[4,3-d]pyrimidin-7-yl)-5-ethynyl-6-fluoronaphthalen-2-ol 2,2,2-trifluoroacetic acid]	6.24			54.8	6.96	182	7.03	6.26			
C#Cc1c(F)ccc2cc(O)cc(-c3ncc4c(N(C)[C@H]5C[C@H]5F)nc(OC[C@@]56CCCN5C[C@H](F)C6)nc4c3F)c12 [Compound 12, 5-ethynyl-6-fluoro-4-(8-fluoro-4-(((1S,2R)-2-fluorocyclopropyl)(methyl)amino)-2-(((2R,7aS)-2-fluorotetrahydro-1H-pyrrolizin-7a(5H)-yl)methoxy)pyrido[4,3-d]pyrimidin-7-yl)naphthalen-2-ol 2,2,2-trifluoroacetic acid]	6.34			64.4	6.84		6.39	5.53	7.36		
C#Cc1c(F)ccc2cc(O)cc(-c3nc(Cl)c4c(N(C)C5CC5)nc(OC[C@@]56CCCN5C[C@H](F)C6)nc4c3F)c12 [Compound 33, 4-(5-chloro-4-(cyclopropyl(methyl)amino)-8-fluoro-2-(((2R,7aS)-2-fluorotetrahydro-1H-pyrrolizin-7a(5H)-yl)methoxy)pyridin [4,3-d]pyrimidin-7-yl)-5-ethynyl-6-fluoro-naphthalen-2-ol 2,2,2-trifluoroacetic acid]	6.18			8.39	7.15	38.6	7.01	6.15			
C#Cc1c(F)ccc2cc(O)cc(-c3ncc4c(NC5CC5C)nc(OC[C@@]56CCCN5C[C@H](F)C6)nc4c3F)c12 (stereo partly drawn) [Compound 22, 5-ethynyl-6-fluoro-4-(8-fluoro-2-(((2R,7aS)-2-fluorotetrahydro-1H-pyrrolizin-7a(5H)-yl)methoxy)-4-((2-methylcyclopropyl)amino)pyrido[4,3-d]pyrimidin-7-yl)naphthalen-2-ol]	6.14			28.6	7.38				8.08		
C#Cc1c(F)ccc2cc(OC(=O)NC)cc(-c3ncc4c(N(C)[C@H]5C[C@@H]5F)nc(OC[C@@]56CCCN5C[C@H](F)C6)nc4c3F)c12.O=C(O)C(F)(F)F [Compound 20, 5-ethynyl-6-fluoro-4-(8-fluoro-4-(((1S,2S)-2-fluorocyclopropyl)(methyl)amino)-2-(((2R,7aS)-2-fluorotetrahydro-1H-pyrrolizin-7a(5H)-yl)methoxy)pyrido[4,3-d]pyrimidin-7-yl)naphthalen-2-yl methylcarbamate 2,2,2-trifluoroacetic acid]		11900	3480								
C#Cc1c(F)ccc2cc(O)cc(-c3ncc4c(NC5(C)CC5)nc(OC[C@@]56CCCN5C[C@H](F)C6)nc4c3F)c12 [Compound 10, 5-ethynyl-6-fluoro-4-(8-fluoro-2-(((2R,7aS)-2-fluorotetrahydro-1H-pyrrolizin-7a(5H)-yl)methoxy)-4-((1-methylcyclopropyl)amino)pyrido[4,3-d]pyrimidin-7-yl)naphthalen-2-ol]	6.28			64.7	6.91				7.53		
C#Cc1c(F)ccc2cc(O)cc(-c3ncc4c(N(C)C5CC5(F)F)nc(OC[C@@]56CCCN5C[C@H](F)C6)nc4c3F)c12 (stereo partly drawn) [Compound 11, 4-(4-((2,2-difluorocyclopropyl)(methyl)amino)-8-fluoro-2-(((2R,7aS)-2-fluorotetrahydro-1H-pyrrolizin-7a(5H)-yl)methoxy)pyrido[4,3-d]pyrimidin-7-yl)-5-ethynyl-6-fluoronaphthalen-2-ol 2,2,2-trifluoroacetic acid]	6.60			23	7.30				7.72		

pIC50: −log10 of the molar value. Read-outs that look alike come from different tables or passages of the source.
